Test results: PubChem BioAssay AID1347073 (National Center for Advancing Translational Sciences (NCATS), 2019)
The whole screen tested about 45,000 compounds, of which about 200 (0.44%) were called active. About 7% were inconclusive and are not listed. Calls come from the whole dose curve; as a rule, active = well fitted activation curve with a large enough effect; inconclusive = small, poorly fitted or top-dose-only effect; inactive = no such curve, though single readings can be large or run the other way. The list shows a part of the results.

Experiment: qHTS of TDP-43 Inhibitors: NCGC Sytravon Library Screen; note: nearly all actives have a fitted effect of over 55% in size; for growth rescue (activation): 0% is about no effect
Settings: yeast TDP-43 toxicity rescue, BacTiter-Glo growth, 24 h; series mostly up to 46.1 µM; growth rescue (activation): at the top concentration
Procedure, shortened: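 TDP-43-expressing yeast, pregrown in raffinose, seeded at OD600 0.02 in galactose medium with compound for 24 hr at 30 deg C. Growth read by BacTiter-Glo luminescence, so rescue of toxicity appears as activation.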
Potency is the fitted concentration of half-maximal effect.

| SMILES | growth rescue (activation) | Potency |
| --- | --- | --- |
| CCCc1nn2c(=O)cc(O)nc2s1 | inactive: -0.896% | – |
| COc1cccc(Oc2coc3cc(OC(=O)N4CCOCC4)ccc3c2=O)c1 | inactive: 13.3% | – |
| Cc1cccc(N2CCN(C(=O)/C=C/c3cccs3)CC2C)c1 (configuration not stated) | inactive: 25.4% | – |
| Cc1cccc(NC(=O)CSc2nc(C)c(Cc3ccccc3)c(=O)[nH]2)c1C | inactive: 9.98% | – |
| COCc1ccc(CN2CCC(n3nccc3NC(=O)CCOc3ccccc3)CC2)o1 | inactive: -7.49% | – |
| CCNS(=O)(=O)c1cc(OC)c(Cl)cc1OC | inactive: -12.5% | – |
| COc1ccc(C(NC(=O)CN2CCCCCC2)c2ccc(OC)cc2)cc1 | inactive: 4.01% | – |
| Cc1ncc([N+](=O)[O-])n1CC(=O)Nc1ccc(Cl)cc1 | inactive: -7.82% | – |
| CSc1ccc(CN(C)CC(=O)NCCc2ccccc2)cc1 | inactive: 3.49% | – |
| COc1ccc(CCNC(=O)Nc2ccc3c(c2)c(=O)n(C)n3Cc2ccc(Cl)cc2)cc1OC | inactive: -9.9% | – |
| COC(=O)C1=C(C)N(Cc2ccc(C)cc2)C(=O)/C1=C\c1cc(OC)c(OC)c(OC)c1 | inactive: 10.7% | – |
| COc1ccc(CCNC(=O)C2=C(C)C(=O)OC23CCCCC3)c(OC)c1 | inactive: 6.93% | – |
| Cc1cc(NS(=O)(=O)c2ccc(NC(=O)c3cccnc3)cc2)nc(C)n1 | inactive: -6% | – |
| O=C(O)Cn1nnc(COc2ccccc2)n1 | inactive: 24.8% | – |
| Cc1coc2c(C)c3oc(=O)c(CCC(=O)NCCC(=O)O)c(C)c3cc12 | inactive: 3.7% | – |
| O=C(NCc1ccco1)c1ccc2sc([C@@H]3O[C@H](CO)[C@@H](O)[C@H]3O)nc2c1 | inactive: -8.85% | – |
| CCOc1ccc(N=C2NC(=O)SC2CC(=O)OC)cc1 (configuration not stated) | inactive: -1% | – |
| COc1ccc(S(=O)(=O)N(C)c2ccc(C(=O)N3CCCCC3)cc2)cc1 | inactive: 12% | – |
| CCN(CC(=O)Nc1ccc(NC(C)=O)cc1)C(=O)COc1ccc(C(=O)c2ccccc2)cc1 | inactive: 10.9% | – |
| Cn1cc(Br)c(C(=O)NNC(=O)Cc2ccc(Cl)cc2)n1 | inactive: 7.02% | – |
| COCCN1Cc2cccc(C(=O)NCCc3ccccc3)c2C1=O | inactive: 10.8% | – |
| CCOC(=O)/C=C1\SCC(=O)N1CC(=O)NC(C)C | inactive: 1.71% | – |

| SMILES | growth rescue (activation) | Potency |
| --- | --- | --- |
| CC(=O)NNC(=S)Nc1cc(S(=O)(=O)N(C)C)ccc1C | inactive: 8.46% | – |
| CCN(CC)P(=O)(Nc1ccc(Br)cc1)c1c(C)nn(CCC#N)c1NC(=O)c1ccc(Cl)cc1 (configuration not stated) | inactive: -2.82% | – |
| CNc1c(NS(=O)(=O)c2ccc(F)cc2)c(=O)oc2ccccc12 | inactive: -7.48% | – |
| CC(Oc1ccc(-c2ccccc2)c(F)c1)c1ccn(S(=O)(=O)c2cccc3ccccc23)n1 (configuration not stated) | inactive: 26.2% | – |
| Cc1ccc(S(=O)(=O)N2CCCCC2)cc1C(=O)N1CCCC1 | inactive: 6.86% | – |
| NNC(=O)c1nnn(-c2nonc2N)c1CN1CCc2ccccc2C1 | inactive: -20.5% | – |
| Cc1ccccc1C(=O)N1CCC(C(=O)NC2CCCC2)CC1 | inactive: 14.4% | – |
| Cc1ccc(C(c2nnnn2C2CCCC2)N2c3ccccc3CC2C)cc1 (configuration not stated) | inactive: -8.01% | – |
| Cc1nc2oc(C(=O)c3ccccc3)c(N)c2c2c1COC(C)(C)C2 | inactive: 42.3% | – |
| Cc1ccc(-n2nc(C)c3c(C)c(CCC(=O)NCc4ccccc4Cl)c(C)nc32)cc1 | inactive: 7.15% | – |
| COCCn1c(Cc2ccccc2)nnc1SCc1ccc([N+](=O)[O-])cc1 | inactive: -7.82% | – |
| NS(=O)(=O)c1ccc(CNC(=S)NC(=O)c2ccco2)cc1 | inactive: 4.69% | – |
| COc1ccc(CCNC(=O)CN(c2ccc(OC)c(OC)c2)S(=O)(=O)c2ccc(C)cc2)cc1 | inactive: 19.7% | – |
| CCCNC(=S)N1CCN(C(c2ccccc2)c2ccccc2)CC1 | inactive: -21.1% | – |
| Cc1nccn1CC(=O)N/N=C/c1ccccc1O | inactive: 4.45% | – |
| COCCCn1c(=O)/c(=C\c2ccccc2OC(F)F)s/c1=C(/C#N)C(N)=O | inactive: -6.76% | – |
| CC1=C(C(=O)OCc2ccccc2)C(c2cccnc2)c2c(n(C)c(=O)n(C)c2=O)N1 (configuration not stated) | inactive: -9.68% | – |
| O=C1CN(C(=O)/C=C/c2cc(Br)ccc2F)CCN1 | inactive: -6.22% | – |
| O=C(Nc1cc(Sc2ccccn2)cc([N+](=O)[O-])c1)c1cccc(Cl)c1 | inactive: -4.74% | – |
| Cc1cc(C)n2c(SCC(=O)NC3CCCCC3)nnc2n1 | inactive: -11.5% | – |
| CCCCOc1ccc(S(=O)(=O)NC(=O)C2(C)CCN2C(=O)Cc2ccccc2Cl)cc1 (configuration not stated) | inactive: 12.6% | – |
| COc1ccc(C(=O)N2CCC2(C)C(=O)NC(C)C)cc1OC (configuration not stated) | inactive: -1.41% | – |

| SMILES | growth rescue (activation) | Potency |
| --- | --- | --- |
| COC(=O)CN1C(c2ccc(Cl)cc2)=Nc2ccc(Cl)cc2C1c1ccccc1 (configuration not stated) | inactive: -9.57% | – |
| CCSc1nc2sc3c(c2c(=O)n1-c1ccc(C)cc1)CCCC3 | inactive: -2.05% | – |
| CC(C)(C)CC(=O)Nc1nnc(SCC(=O)NC2CCCCC2)s1 | inactive: 0.964% | – |
| Cc1ccc(-c2nnc(N3CCN(c4ccccn4)CC3)c3ccccc23)cc1 | inactive: -7.83% | – |
| O=C1N=c2ccccc2=C1c1sc(=S)n(NC(=O)c2ccccc2)c1O | inactive: -4.09% | – |
| CN(C)C(=O)COc1ccc(S(=O)(=O)c2ccc(OCC(=O)N(C)C)cc2)cc1 | inactive: 2.29% | – |
| CCNS(=O)(=O)c1ccc(CCC(=O)Nc2ccccc2)cc1 | inactive: 6.21% | – |
| CS(=O)(=O)N1CCN(c2ccccc2NC(=O)c2ccc3c(c2)OCCO3)CC1 | inactive: 6.35% | – |
| O=C(Nc1cc(S(=O)(=O)N2CCOCC2)ccc1N1CCCCC1)c1ccccc1Br | inactive: 13.4% | – |
| Nc1cc(C(=O)OCC(=O)NCCNC(=O)COC(=O)c2ccc(Cl)c(N)c2)ccc1Cl | inactive: 4.69% | – |
| COc1cc(/C=C(\C#N)C(=O)Nc2cccc3ncccc23)cc(OC)c1OC | inactive: 24.4% | – |
| CC1(C)CC(=O)C=C(Nc2cccc(O)c2)C1 | inactive: 14.6% | – |
| Cc1nnc(SCc2cc(=O)[nH]c(=S)[nH]2)s1 | inactive: -7.31% | – |
| Cc1ccc(Sc2ncnc(N)c2[N+](=O)[O-])cc1 | inactive: -1.61% | – |
| COc1ccc(N2CCC(CNC(=S)Nc3cccc(C)c3)C2)cc1 (configuration not stated) | – | active: 14.1 µM |
| O=C(C1CCC(CNS(=O)(=O)c2ccccc2)CC1)N1CCCCC1 (configuration not stated) | inactive: -5.32% | – |
| CC(C)NC(=O)/C=C/C(=O)O | inactive: -2.19% | – |
| CCCc1nnc(NC(=O)CCS(=O)(=O)c2ccccc2)s1 | inactive: 2.1% | – |
| O=C(NCC(=O)N(c1ccc(F)cc1)C(C(=O)NC1CCCC1)c1cccnc1)c1cccs1 (configuration not stated) | inactive: 11.7% | – |
| Cc1ccc(C)c(OCC(=O)Nc2ccccc2C(=O)N2CCOCC2)c1 | inactive: 9.94% | – |
| CCOC(=O)c1c(-c2ccc(C)o2)csc1NC(=S)NC(=O)c1ccc(F)cc1 | inactive: -11.4% | – |
| CN1/C(=C\C(=S)NC(=O)c2ccccc2Cl)C(C)(C)c2ccccc21 | inactive: -5.14% | – |

| SMILES | growth rescue (activation) | Potency |
| --- | --- | --- |
| Cc1ccc2cc3c(N)[nH]nc3nc2c1 | inactive: 18.2% | – |
| CCOC(=O)Cc1cc(=O)[nH]c(/N=C(\N)Nc2ccc(OC)cc2)n1 | inactive: -6.67% | – |
| O=C(COC(=O)/C(=C/c1cccs1)c1cccs1)NCc1ccccc1Cl | inactive: 10.8% | – |
| Cc1nn(CCCC(=O)Nc2cccnc2Cl)c(C)c1[N+](=O)[O-] | inactive: 5.57% | – |
| CCOc1ccc(NC(=O)COC(=O)c2n[nH]c3ccccc23)cc1 | inactive: 9.86% | – |
| CCOCCc1nnc(NC(=O)C2CCN(C(=O)c3ccco3)CC2)s1 | inactive: 12.1% | – |
| Cc1ccc(N2C(=O)c3ccccc3C2=O)cc1 | inactive: 12.5% | – |
| Cc1ccc(C)c(N(CC(=O)NN=C2CCN(C)CC2)S(=O)(=O)c2ccccc2)c1 | inactive: -15% | – |
| Cc1nc(N/C(N)=N/S(=O)(=O)c2ccccc2)nc2ccccc12 | inactive: 12.7% | – |
| O=S(=O)(Nc1ccc(Cl)cc1)c1cccc2nsnc12 | inactive: 9.59% | – |
| O=C(Nc1cc(S(=O)(=O)N2CCCCC2)ccc1Cl)c1ccccc1NS(=O)(=O)c1ccc(F)cc1 | inactive: 20.6% | – |
| O=C(CNc1ccc2ccccc2c1)N/N=C/c1ccc(C(=O)O)cc1 | inactive: 5.31% | – |
| Cn1c(=O)c2c(nc(NCc3ccccc3)n2CC(=O)NCc2ccccc2)n(C)c1=O | inactive: 18.6% | – |
| CCOc1ccccc1NC(=O)C(OC(=O)C1CC1)c1ccccc1 (configuration not stated) | inactive: 21.1% | – |
| NS(=O)(=O)c1ccc(NC(=O)CCC(=O)c2ccc(Cl)s2)cc1 | inactive: -5.22% | – |
| COc1cccc(/C=C/C(=O)OCC(=O)c2c[nH]c3ccccc23)c1OC | inactive: -10.9% | – |
| COc1ccccc1C(c1nnnn1CC1CCCO1)N1CCN(c2ccccc2)CC1 (configuration not stated) | inactive: 6.6% | – |
| CCc1c(C)nc2nncn2c1NCc1ccc(OC)cc1 | inactive: 5.2% | – |
| COc1ccc(NC(=S)N2CCCC2c2ccc(OC)c(OC)c2)cc1 (configuration not stated) | inactive: 11.5% | – |
| COc1cc(/C=N/NC(=O)c2c(C)nc3ccc(Cl)cn23)cc(OC)c1OC | inactive: 9.57% | – |
| CC1CC(C)CN(CCCNC(=O)c2ccc3c(c2)NC(=O)C(N2CCCCC2)S3)C1 (configuration not stated) | inactive: 5.23% | – |
| COc1cc(CCC(=O)Nc2sccc2C#N)cc(OC)c1OC | inactive: 5.83% | – |

| SMILES | growth rescue (activation) | Potency |
| --- | --- | --- |
| CCOc1ccc(NC(=O)Cn2c(=O)n(CCCC(=O)NC3CCN(Cc4ccccc4)CC3)c(=O)c3ccccc32)cc1 | inactive: 14.4% | – |
| OC1CCCN(CC(O)COC(c2ccc(F)cc2)c2ccc(F)cc2)C1 (configuration not stated) | inactive: 1.47% | – |
| Cc1c(C(=O)NCC(c2ccco2)N2CCCC2)sc2ccccc12 (configuration not stated) | inactive: -3.34% | – |
| CCN1CCN(C(=O)C2CC(=O)N(c3ccc(Cl)cc3)C2)CC1 (configuration not stated) | inactive: -4.58% | – |
| Cc1ccc(-c2nnn(CCOc3cccc(Br)c3)n2)cc1 | inactive: 1.15% | – |
| CC1(C(=O)NS(=O)(=O)c2ccccc2)CCN1C(=O)Cc1ccc(-c2ccccc2)cc1 (configuration not stated) | inactive: 11.3% | – |
| O=C(NC1=NCCS1)c1ccc(Cl)c(S(=O)(=O)N2CCCCCC2)c1 | inactive: 18.4% | – |
| CCCS(=O)(=O)N1CCC(C(=O)NCCC(C)C)CC1 | inactive: 1.61% | – |
| O=C(NCCOc1nc(N2CCCCC2)nc(N2CCCCC2)n1)Nc1ccccc1 | inactive: -0.0925% | – |
| CC(C)(C)c1ccc(C(=O)N2CCC(C(=O)NC3CC3)CC2)cc1 | inactive: 8.63% | – |
| CC(C)C(=O)Nc1cccc(C(=O)Nc2ccc(S(=O)(=O)Nc3nccs3)cc2)c1 | inactive: 2.61% | – |
| CN(CC(=O)Nc1ccccc1C(F)(F)F)C(=O)COc1ncnc2sccc12 | inactive: 10.4% | – |
| CC1=Nc2ccc(C)cc2/C1=C/c1c(N)n2oc(C)cc2nc1=O | inactive: 4.4% | – |
| COc1cc(N)c(Cl)cc1Cl | inactive: 2.02% | – |
| CC(C)CCn1c(=S)[nH]c2ncccc2c1=O | inactive: 18.6% | – |
| CCC1Oc2ccc(C)cc2N(CC(=O)NCCN2CCOCC2)C1=O (configuration not stated) | inactive: 1.78% | – |
| COc1cc(NC(=S)NCc2cccs2)cc(OC)c1 | inactive: 21.9% | – |
| CCOC(=O)c1c(/N=C/N(C)C)sc(C)c1C | inactive: 30.2% | – |
| COc1ccc(C(=O)CN2C(=O)COc3ccccc32)cc1 | inactive: 20.1% | – |
